According to paper PMC8664900:
These are yes or no findings as the source states them, for the method shown. In cells and extracts the contact can be indirect. Some results given as binding are weak or reduced against the parent protein; the word gives no strength. For some of these results: Sequences can lack the tags named with a protein. Values belong to the binder of their own block, whether it stands above or below them.

What was measured:
[1] = biological target: T1, 2xProteinA-Atg11^FL (S. cerevisiae) (UniProt Q12527); assay: co-IP; protein A immunoprecipitation with IgG-coupled Dynabeads M-270 Epoxy from freezer-milled yeast extract; RLB+ buffer, 1 h at 4 °C; western blot
T1 sequence: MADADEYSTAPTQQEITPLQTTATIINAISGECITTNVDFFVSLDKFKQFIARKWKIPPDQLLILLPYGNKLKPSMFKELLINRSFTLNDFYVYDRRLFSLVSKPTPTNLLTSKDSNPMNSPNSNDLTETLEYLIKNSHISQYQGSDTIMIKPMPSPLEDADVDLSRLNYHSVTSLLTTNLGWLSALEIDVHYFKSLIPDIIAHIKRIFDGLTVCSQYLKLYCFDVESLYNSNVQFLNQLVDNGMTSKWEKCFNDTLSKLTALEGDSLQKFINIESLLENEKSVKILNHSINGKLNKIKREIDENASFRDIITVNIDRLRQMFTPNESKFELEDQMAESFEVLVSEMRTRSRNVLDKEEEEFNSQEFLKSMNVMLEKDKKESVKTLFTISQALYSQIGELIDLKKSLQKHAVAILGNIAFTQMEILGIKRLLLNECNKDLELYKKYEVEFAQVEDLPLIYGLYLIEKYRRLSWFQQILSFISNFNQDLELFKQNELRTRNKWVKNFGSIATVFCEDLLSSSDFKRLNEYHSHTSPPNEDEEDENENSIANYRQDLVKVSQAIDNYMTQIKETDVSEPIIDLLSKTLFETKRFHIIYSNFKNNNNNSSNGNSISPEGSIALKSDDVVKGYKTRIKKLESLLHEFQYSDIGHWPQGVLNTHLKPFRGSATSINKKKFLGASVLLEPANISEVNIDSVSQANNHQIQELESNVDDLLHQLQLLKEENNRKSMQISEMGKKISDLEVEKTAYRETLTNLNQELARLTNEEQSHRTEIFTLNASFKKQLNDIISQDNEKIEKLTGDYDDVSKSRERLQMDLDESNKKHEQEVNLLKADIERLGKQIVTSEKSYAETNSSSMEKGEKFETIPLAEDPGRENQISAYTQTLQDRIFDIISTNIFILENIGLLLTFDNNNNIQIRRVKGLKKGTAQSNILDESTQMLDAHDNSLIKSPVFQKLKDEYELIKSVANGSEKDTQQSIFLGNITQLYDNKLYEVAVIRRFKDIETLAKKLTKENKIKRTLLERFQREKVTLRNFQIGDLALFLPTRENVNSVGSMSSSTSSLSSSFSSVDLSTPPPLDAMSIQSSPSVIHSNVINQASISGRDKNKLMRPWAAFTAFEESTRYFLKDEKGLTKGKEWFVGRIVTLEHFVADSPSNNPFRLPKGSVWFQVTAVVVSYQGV

[2] = biological target: T2, 2xProteinA-Atg11^1–454 (S. cerevisiae) (UniProt Q12527); assay: as above
T2 sequence: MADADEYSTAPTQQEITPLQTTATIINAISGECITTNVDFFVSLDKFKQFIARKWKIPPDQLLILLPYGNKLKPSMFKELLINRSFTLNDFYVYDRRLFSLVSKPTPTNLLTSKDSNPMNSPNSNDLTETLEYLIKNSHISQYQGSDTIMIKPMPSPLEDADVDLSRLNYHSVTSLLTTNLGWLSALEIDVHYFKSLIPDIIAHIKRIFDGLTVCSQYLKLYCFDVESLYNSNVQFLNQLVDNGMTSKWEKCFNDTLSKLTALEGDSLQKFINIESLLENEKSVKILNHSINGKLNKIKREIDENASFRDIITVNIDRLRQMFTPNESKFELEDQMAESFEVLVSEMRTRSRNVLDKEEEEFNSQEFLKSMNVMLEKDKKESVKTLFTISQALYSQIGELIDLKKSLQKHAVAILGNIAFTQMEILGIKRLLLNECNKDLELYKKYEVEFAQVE

[3] = biological target: T3, Vac8-GFP (S. cerevisiae) (UniProt P39968); assay: co-IP; GFP immunoprecipitation with magnetic GFP-Trap beads from yeast extracts made by glass bead lysis; RLB+ buffer (1x PBS pH 7.4, 10% glycerol, 0.5% Tween-20), 1 h at 4 °C; western blot with anti-GFP and anti-protein A; also in cells lacking Atg13 (Vac8-Atg11) and in vac8∆ cells (Vps15/Vps34-Atg14)
T3 sequence: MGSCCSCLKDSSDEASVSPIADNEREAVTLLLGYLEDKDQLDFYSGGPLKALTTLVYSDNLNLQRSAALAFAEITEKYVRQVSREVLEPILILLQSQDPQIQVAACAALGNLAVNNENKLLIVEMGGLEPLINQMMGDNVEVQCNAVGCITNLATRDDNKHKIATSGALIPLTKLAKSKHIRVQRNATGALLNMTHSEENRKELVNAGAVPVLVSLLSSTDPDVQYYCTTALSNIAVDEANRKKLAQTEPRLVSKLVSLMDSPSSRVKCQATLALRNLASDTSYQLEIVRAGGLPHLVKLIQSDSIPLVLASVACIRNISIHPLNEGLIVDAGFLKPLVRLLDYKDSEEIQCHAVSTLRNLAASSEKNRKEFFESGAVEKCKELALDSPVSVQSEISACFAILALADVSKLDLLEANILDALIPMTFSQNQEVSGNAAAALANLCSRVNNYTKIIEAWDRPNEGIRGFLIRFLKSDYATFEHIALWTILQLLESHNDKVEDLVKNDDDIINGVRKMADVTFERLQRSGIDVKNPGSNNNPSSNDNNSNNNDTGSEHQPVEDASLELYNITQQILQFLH

B2: 2xProteinA-Atg11^FL (protein, UniProt Q12527 1-1178)
chain: T1 sequence
binding [3]: binds

B3: 2xProteinA-Atg11^1–454 (domain or fragment, UniProt Q12527 1-454)
chain: T2 sequence
binding [3]: binds

B4: Atg9 (protein, UniProt Q12142 1-997)
chain: MERDEYQLPNSHGKNTFLSRIFGLQSDEVNPSLNSQEMSNFPLPDIERGSSLLHSTNDSREDVDENDLRVPESDQGTSTEEEDEVDEEQVQAYAPQISDGLDGDHQLNSVTSKENVLETEKSNLERLVEGSTDDSVPKVGQLSSEEEEDNEFINNDGFDDDTPLFQKSKIHEFSSKKSNTIEDGKRPLFFRHILQNNRPQRDTQKLFTSSNAIHHDKDKSANNGPRNINGNQKHGTKYFGSATQPRFTGSPLNNTNRFTKLFPLRKPNLLSNISVLNNTPEDRINTLSVKERALWKWANVENLDIFLQDVYNYYLGNGFYCIILEKILNICTLLFVVFVSTYMGHCVDYSKLPTSHRVSDIIIDKCYSNSITGFTKFFLWMFYFFVILKIVQLYFDVQKLSELQNFYKYLLNISDDELQTLPWQNVIQQLMYLKDQNAMTANVVEVKAKNRIDAHDVANRIMRRENYLIALYNSDILNLSLPIPLFRTNVLTKTLEWNINLCVMGFVFNESGFIKQSILKPSQREFTREELQKRFMLAGFLNIILAPFLVTYFVLLYFFRYFNEYKTSPGSIGARQYTPIAEWKFREYNELYHIFKKRISLSTTLANKYVDQFPKEKTNLFLKFVSFICGSFVAILAFLTVFDPENFLNFEITSDRSVIFYITILGAIWSVSRNTITQEYHVFDPEETLKELYEYTHYLPKEWEGRYHKEEIKLEFCKLYNLRIVILLRELTSLMITPFVLWFSLPSSAGRIVDFFRENSEYVDGLGYVCKYAMFNMKNIDGEDTHSMDEDSLTKKIAVNGSHTLNSKRRSKFTAEDHSDKDLANNKMLQSYVYFMDDYSNSENLTGKYQLPAKKGYPNNEGDSFLNNKYSWRKQFQPGQKPELFRIGKHALGPGHNISPAIYSTRNPGKNWDNNNNGDDIKNGTNNATAKNDDNNGNNDHEYVLTESFLDSGAFPNHDVIDHNKMLNSNYNGNGILNKGGVLGLVKEYYKKSDVGR
binding [1]: binds | binding [2]: no binding

B6: Atg17 (protein, UniProt Q06410 1-417)
chain: MNEADVTKFVNNARKTLTDAQLLCSSANLRIVDIKKKLSSWQLSISKLNFLIVGLRQQGKFLYTILKEGIGTKLIQKQWNQAVLVVLVDEMKYWQYEITSKVQRLDGIVNELSISEKDDTDPSKLGDYISRDNVNLLNDKLKEVPVIERQIENIKLQYENMVRKVNKELIDTKLTDVTQKFQSKFGIDNLMETNVAEQFSRELTDLEKDLAEIMNSLTQHFDKTLLLQDKKIDNDEREELFKVVQGDDKELYNIFKTLHEVIDDVDKTILNLGQFLQAKIKEKTELHSEVSEIINDFNRNLEYLLIFKDISNLIDSFKNSCTQDIQTTKELCEFYDNFEESYGNLVLEAKRRKDVANRMKTILKDCEKQLQNLDAQDQEERQNFIAENGTYLPETIWPGKIDDFSSLYTLNYNVKNP
binding [1]: binds | binding [2]: no binding

The next lines start with the values.

binding [1]: binds | binding [2]: no binding
B1: Atg29 (protein, UniProt Q12092 1-213)
chain: MIMNSTNTVVYIKVKGRRPQGFLDPPKFEWNGTKERQLWTMVSNLNYSQDQIDWQNLSKIFETPEFFLKKRTYKLFAEHLELLQLQLEKKRDLEKYSNDQVNEGMSDLIHKYTPTLQNDNLLNVSASPLTTERQDSEEVETEVTNEALQHLQTSKILNIHKKTSDSENKPNDKLDKDGINKEMECGSSDDDLSSSLSVSKSALEEALMDRLQF

binding [1]: binds | binding [2]: no binding
B5: Atg19 (protein, UniProt P35193 1-415)
chain: MNNSKTNQQMNTSMGYPLTVYDECNKFQLIVPTLDANIMLWCIGQLSLLNDSNGCKHLFWQPNDKSNVRILLNNYDYGHLFKYLQCQRKCSVYIGEGTLKKYNLTISTSFDNFLDLTPSEEKESLCREDAHEDPVSPKAGSEEEISPNSTSNVVVSRECLDNFMKQLLKLEESLNKLELEQKVTNKEPNHRISGTIDIPEDRSELVNFFTELKTVKQLEDVFQRYHDYERLSQECDSKTEIASDHSKKETKIEVEPPNERSLQITMNQRDNSLYFQLFNNTNSVLAGNCKLKFTDAGDKPTTQIIDMGPHEIGIKEYKEYRYFPYALDLEAGSTIEIENQYGEVIFLGKYGSSPMINLRPPSRLSAESLQASQEPFYSFQIDTLPELDDSSIISTSISLSYDGDDNEKALTWEEL
